# Assay results as given in PubChem BioAssay AID463173 (ICCB-Longwood Screening Facility, Harvard Medical School, 2010).
# About 1,700 (3.3%) of roughly 52,000 compounds were called active. No stated cut-off is given here; in the data, active means survival mostly below about 52% (no sharp cut-off); inactive means mostly above about 56%. The list shows a part of the results.
# Tested on: Wild type
# Experiment: S. aureus survival, RN4220 and DeltatarO strains – OD600, teichoic acid synthesis inhibitors, primary screen (AID 463173)
# Settings: S. aureus RN4220 wild type/DeltatarO growth, OD600, 18 h, active compounds read low, screened at 18.75 µg/mL (by protocol)
row,SMILES,survival
1,c1nc(N2CCCC2)c2c3c(sc2n1)CCC3,inactive: 105%
2,COc1ccc(Br)cc1CNC(=O)CCCn1c(=O)c2cccn2c2cccnc21,inactive: 108%
3,CCCS(=O)(=O)c1c(S(=O)(=O)CCC)c2cc(C(C)(C)C)ccn2c1C(=O)c1ccc(OC)c(OC)c1,inactive: 152%
4,COc1ccc(C2C=C(c3ccc(C)cc3)Nc3c(C(=O)Nc4ccccc4)cnn32)cc1 (stereo unspecified),inactive: 43%
5,COc1ccc(CN(Cc2nc3ccccc3c(=O)[nH]2)C(=O)NCc2ccccc2)cc1,inactive: 114%
6,Cc1ccc(C)c(NC(=O)c2cc(S(=O)(=O)N3CCc4ccccc4C3)ccc2F)c1,inactive: 66%
7,COc1ccccc1CNC(=O)c1cc2sccc2n1Cc1ccc(F)cc1,inactive: 147%
8,COc1ccc(-c2noc(-c3ccccc3OCC(=O)Nc3ccc(C(C)=O)cc3)n2)cc1,inactive: 83%
9,O=C(Cn1ncc2c3ccccc3n(Cc3ccccc3)c2c1=O)N1CCCCCC1,inactive: 84%
10,O=C(NC(c1ccccc1)c1ccccc1)C1CCCO1 (stereo unspecified),inactive: 96%
11,COc1ccccc1NC(=O)Cn1c(=O)n(-c2ccccc2Cl)c(=O)c2sc3ccccc3c21,inactive: 81%
12,CC(C)OC(=O)CN1CCN(C2CCCCC2)CC1,inactive: 102%
13,COCCCn1c(SCc2ccccc2F)nc2c(sc3ccccc32)c1=O,inactive: 98%
14,CCc1cccc(NC(=O)Cn2c(C(=O)OC)cc3occc32)c1,inactive: 83%
15,C=CCn1c(C(CC)CC(C)(C)O)n[nH]c1=S (stereo unspecified),inactive: 102%
16,COc1ccc(CNC(=O)CCCCCn2c(=O)[nH]c3ccccc3c2=O)cc1,inactive: 88%
17,Cc1ccc(CNc2ccc(-c3nc(-c4cccnc4)no3)cc2[N+](=O)[O-])cc1,inactive: 79%
18,CCN(CC)S(=O)(=O)c1ccc2c(c1)N(CC(=O)Nc1ccc(F)cc1F)C(=O)C1CCCN21 (stereo unspecified),inactive: 64%
19,CCOC(=O)c1[nH]c2ccccc2c1NC(=O)c1cc(Cl)ccc1Cl,inactive: 96%

row,SMILES,survival
1,CCn1cc(C(=O)NCCc2ccc(Cl)cc2)c(=O)c2cc(S(=O)(=O)N3CCOCC3)ccc21,inactive: 74%
2,CCOC(=O)c1[nH]c2ccccc2c1NC(=O)c1ccc(OC)c(OC)c1,inactive: 141%
3,COc1cc(NC(=O)Cn2c(C)cc(C)c(C#N)c2=O)cc(OC)c1,inactive: 70%
4,Cc1cccc2cc(CN(C(=O)c3ccco3)C3CCCC3)c(=O)[nH]c12,inactive: 100%
5,Oc1cccc(-c2nc3ncccn3c2Nc2cccc(C(F)(F)F)c2)c1,inactive: 71%
6,COc1ccccc1Nc1nc2c(S(=O)(=O)c3ccc(C(C)C)cc3)nnn2c2ccsc12,inactive: 116%
7,CCCC(C(=O)NC1CCCC1)N(C(=O)Cn1nnc(-c2ccc(C)o2)n1)C1CCCC1 (stereo unspecified),inactive: 108%
8,NC(=O)CSc1nnc(COc2ccccc2)n1C1CCCCC1,inactive: 110%
9,O=C(CC(c1cccs1)N1Cc2ccccc2C1=O)Nc1ccc(Cl)cc1 (stereo unspecified),inactive: 129%
10,COc1ccccc1Cc1nc2ccccc2nc1SCC(=O)NCc1ccc(F)cc1,inactive: 63%
11,CCOc1ccc2nc(Cl)c(C3CC(c4ccc(C)cc4)=NN3C(=O)CCCC(=O)O)cc2c1 (stereo unspecified),inactive: 73%
12,Cc1ccc2c(=O)cc(C(=O)Nc3ccc(S(=O)(=O)N4CCCCC4)cc3)oc2c1C,inactive: 108%
13,Cc1cccc(N2CCN(c3ncnc4onc(-c5ccc(F)cc5)c34)CC2C)c1 (stereo unspecified),inactive: 85%
14,Cc1ccc(NC(=O)CCc2nc3cccnc3n2-c2ccccc2)cc1,inactive: 75%
15,COc1cccc2cc(C(=O)Nc3ccc(S(=O)(=O)N4CCOCC4)cc3)c(=O)oc12,inactive: 102%
16,Cc1cc(C)c2oc(-c3ccc(NC(=O)c4cc(Br)ccc4Cl)cc3)nc2c1,inactive: 103%
17,O=C(Cn1c(=O)n(Cc2ccc(C(=O)NCc3ccccc3Cl)cc2)c(=O)c2ccccc21)Nc1ccc(F)cc1,inactive: 80%
18,Cc1coc2cc3oc(=O)c(CC(=O)NCCc4ccccc4F)c(C)c3cc12,inactive: 85%
19,CC(C)(C)C(=O)Nc1ccc(Cl)c(-c2nc3ccccc3[nH]2)c1,inactive: 75%

row,SMILES,survival
1,CN(Cc1ccccc1)c1nc(-c2ccc(F)cc2)cc(C(F)(F)F)n1,inactive: 80%
2,O=C(COc1ccccc1F)Nc1ccc(C(=O)OCc2cc(=O)n3nc(C4CC4)sc3n2)cc1,inactive: 129%
3,CCCCN(C)CCNC(=O)c1cc(-c2cccnc2)nc2ccc(S(=O)(=O)N3CCC(C)CC3)cc12,inactive: 71%
4,Cc1ccn2c(c1)nc(=O)c1cc(S(=O)(=O)N3CCC(C)CC3)c(Cl)cc12,inactive: 75%
5,O=C(Nc1ccc(Cl)cc1Cl)c1cc(S(=O)(=O)N2CCN(c3ccccc3F)CC2)ccc1F,inactive: 73%
6,Cc1ccc(-c2cc3ncc(C(=O)c4cc([N+](=O)[O-])ccc4O)cn3n2)cc1,active: 15%
7,Cc1ccc(NC(=O)CCSCCc2ccccn2)cc1,inactive: 78%
8,COc1ccc2cc(CN(Cc3nnnn3Cc3ccccc3)C3CCCC3)c(=O)[nH]c2c1,inactive: 116%
9,CCc1ccc(-n2c(C)nnc2SCc2nc(-c3ccc(OC)cc3)no2)cc1,inactive: 74%
10,CCC(C(=O)Nc1cccc(-c2cn3cccnc3n2)c1)c1ccccc1 (stereo unspecified),inactive: 93%
11,CC(C)c1ccc(NC(=O)N2CCCC2C(=O)Nc2ccc(-n3cnnn3)cc2)cc1 (stereo unspecified),inactive: 104%
12,COc1ccc(Br)cc1CNC(=O)CCCn1c(=O)c2cccn2c2ccccc21,inactive: 50%
13,Cc1cccc(-c2nnc(-c3ccccc3)o2)c1,inactive: 112%
14,CCC(Oc1ccccc1F)C(=O)Nc1c(C(=O)c2ccccc2)oc2ccccc12 (stereo unspecified),inactive: 54%
15,CC(C)(C)OC(=O)N1CCC(c2c(C(=O)NCc3ccc4c(c3)OCO4)cnn2-c2ccc(F)cc2F)CC1,inactive: 84%
16,O=C(Nc1ccc(Cl)cc1)C1CCN(c2nc3ccccc3n3cccc23)CC1,inactive: 97%
17,CN(C)c1ccc(C(CNS(=O)(=O)c2ccc(Cl)cc2)N2CCCC2)cc1 (stereo unspecified),active: -3%
18,CC1=C(C(=O)Nc2ccc(C)cc2C)C(c2ccccc2C)n2ncnc2N1 (stereo unspecified),inactive: 73%
